Data published in patent publication US6545009B1, “Retinoid-related receptor function regulating agent” (Takeda Chemical Industries, Ltd., priority 1998, dated 2003).
Read-outs that look alike come from different tables or passages of the source. Entries with a single value are a further part of the results.

melting point (recrystallized from acetone-hexane): 231 to 232 °C
melting point (recrystallized from tetrahydrofuran-hexane): 280 to 281 °C
SMILES: CCOc1ccc(-c2csc(-c3cccc(C(=O)O)c3)n2)cc1 [Example 96, 3-[4-(4-ethoxyphenyl)-2-thiazolyl]benzoic acid]
